34 compounds from patent US20230357152A1 (priority 2020, published 2023) can be followed below.

For the first assay, the system named is Botrytis cinerea. The assay is classed as cell-based.
On to `CNC(=O)/C(=N/OC)c1cccc(C)c1CO/N=C(\C)c1cccc(OC)n1` [Example 3], for which the “Fungal growth at 31 ppm (%) BOTRCI” value was 8%.
Regarding `CO/N=C(/C(=O)OC)c1cccc(C)c1CO/N=C(\C)c1cccc(C(F)(F)F)n1` [Example 1], the “Fungal growth at 31 ppm (%) BOTRCI” value turned out to be 20%.

A further assay concerns Septoria tritici. The assay is classed as cell-based.
As to `CO/N=C(/C(=O)OC)c1cccc(C)c1CO/N=C(/c1cc(C(F)(F)F)ccn1)C1CC1` [Example 72, Methyl (2E)-2-[2-[[(E)-[cyclopropyl-[4-(trifluoromethyl)-2-pyridyl]methylene]amino]-oxymethyl]-3-methyl-phenyl]-2-methoxyimino-acetate], the “Fungal growth at 31 ppm (%) SEPTTR” value is recorded as 4%.
The same measure, in the same setting: the same measure for `CNC(=O)/C(=N/OC)c1cccc(C)c1CO/N=C(\C)c1ncsc1C(F)(F)F` [Example 41]: 2%; for `CO/N=C(/C(=O)OC)c1cccc(C)c1CO/N=C(\C)c1ncccc1C(F)(F)F` [Example 27, Methyl (2E)-2-methoxyimino-2-[3-methyl-2-[[(E)-1-[3-(trifluoromethyl)-2-pyridyl]-ethylideneamino]oxymethyl]phenyl]acetate]: 5%.
The same measure, in the same setting: the same measure for `CNC(=O)/C(=N/OC)c1cccc(C)c1CO/N=C(\C)c1ncccc1C(F)F` [Example 33]: 4%.
Same read-out and setting: the same measure for `CO/N=C(/C(=O)OC)c1cccc(C)c1CO/N=C(\C)c1cnc(Cl)c(Cl)c1` [Example 87]: 1%; for `CNC(=O)/C(=N/OC)c1cccc(C)c1CO/N=C(\C)c1cnc(Cl)c(Cl)c1` [Example 88]: 9%; for `CO/N=C(/C(=O)OC)c1cccc(C)c1CO/N=C(\C)c1cccc(C)n1` [Example 65]: 0%.
In the case of `CO/N=C(/C(=O)OC)c1cccc(C)c1CO/N=C(\C)c1ncccc1C(F)F` [Example 24], the “Fungal growth at 31 ppm (%) SEPTTR” value is reported as 0%.
For `CNC(=O)/C(=N/OC)c1cccc(C)c1CO/N=C(\C)c1cccc(C(F)F)n1` [Example 10], the “Fungal growth at 31 ppm (%) SEPTTR” value is on record as 2%.
The same measure, in the same setting: the same measure for `CO/N=C(/C(=O)OC)c1cccc(C)c1CO/N=C(\C)c1cc(C(F)(F)F)cc(C)n1` [Example 46]: 0%; for `CNC(=O)/C(=N/OC)c1cccc(C)c1CO/N=C(\C)c1cc(/C(C)=N/OC)ccn1` [Example 30, (2E)-2-Methoxyimino-2-[2-[[(E)-1-[4-[(E)-N-methoxy-C-methyl-carbonimidoyl]-2-pyridyl]ethylideneamino]oxymethyl]-3-methyl-phenyl]-N-methyl-acetamide]: 2%.
Still for that read-out and setting: with `CNC(=O)/C(=N/OC)c1cccc(C)c1CO/N=C(\C)c1cc(C#N)ccn1` [Example 55] the figure was 8%; with `CO/N=C(/C(=O)OC)c1cccc(C)c1CO/N=C(\C)c1cccc(C(F)F)n1` [Example 9], 4%.
On the same count and under the same terms, the same measure for `CO/N=C(/C(=O)OC)c1cccc(C)c1CO/N=C(\C)c1cc(-c2ccc(F)cc2)sn1` [Example 11, Methyl (2E)-2-[2-[[(E)-1-[5-(4-fluorophenyl)isothiazol-3-yl]ethylideneamino]oxy-methyl]-3-methyl-phenyl]-2-methoxyimino-acetate]: 10%; for `CO/N=C(/C(=O)OC)c1cccc(C)c1CO/N=C(\C)c1cc(C)ccn1` [Example 25]: 0%; for `CO/N=C(/C(=O)OC)c1cccc(C)c1CO/N=C(\C)c1cc(C#N)ccn1` [Example 54]: 4%.
For the compound `CNC(=O)/C(=N/OC)c1cccc(C)c1CO/N=C(\C)c1cc(C(F)F)ccn1` [Example 37], the “Fungal growth at 31 ppm (%) SEPTTR” value was 3%.
As to `CO/N=C(/C(=O)OC)c1cccc(C)c1CO/N=C(\C)c1ccnc(SC)c1` [Example 94], the “Fungal growth at 31 ppm (%) SEPTTR” value was found to be 1%.
Same read-out and setting: with `CO/N=C(/C(=O)OC)c1cccc(C)c1CO/N=C(\C)c1cncc(C(F)(F)F)c1` [Example 84, Methyl (2E)-2-methoxyimino-2-[3-methyl-2-[[(E)-1-[5-(trifluoromethyl)-3-pyridyl]ethyl-ideneamino]oxymethyl]phenyl]acetate] the figure was 1%; with `CNC(=O)/C(=N/OC)c1cccc(C)c1CO/N=C(/c1cc(C(F)(F)F)ccn1)C1CC1` [Example 70, (2E)-2-[2-[[(E)-[cyclopropyl-[4-(trifluoromethyl)-2-pyridyl]methylene]amino]oxymethyl]-3-methyl-phenyl]-2-methoxyimino-N-methyl-acetamide], 0%.
Still for that read-out and setting: the same measure for `CO/N=C(/C(=O)OC)c1cccc(C)c1CO/N=C(\C)c1cccc(OC)n1` [Example 6]: 7%; for `CO/N=C(\C)c1ccnc(/C(C)=N/OCc2c(C)cccc2/C(=N\OC)C(=O)OC)c1` [Example 29, Methyl (2E)-2-methoxyimino-2-[2-[[(E)-1-[4-[(E)-N-methoxy-C-methyl-carbonimidoyl]-2-pyridyl]ethylideneamino]oxymethyl]-3-methyl-phenyl]acetate]: 0%; for `CO/N=C(/C(=O)OC)c1cccc(C)c1CO/N=C(\C)c1cc(C(F)F)ccn1` [Example 34]: 0%.
On to `CO/N=C(/C(=O)OC)c1cccc(C)c1CO/N=C(\C)c1ccnc(C(F)(F)F)c1` [Example 47], for which the “Fungal growth at 31 ppm (%) SEPTTR” value is recorded as 0%.

For the next assay, the system named is Fusarium culmorum. The assay is classed as cell-based.
For `CO/N=C(/C(=O)OC)c1cccc(C)c1CO/N=C(\C)c1cc(-c2ccc(F)cc2)on1` [Example 14], the “Fungal growth at 31 ppm (%) FUSACU” value stood at 20%.
In the case of `CNC(=O)/C(=N/OC)c1cccc(C)c1CO/N=C(\C)c1ncsc1C(F)(F)F` [Example 41], the “Fungal growth at 31 ppm (%) FUSACU” value was 9%.
The same measure, in the same setting: the same measure for `CNC(=O)/C(=N/OC)c1cccc(C)c1CO/N=C(\C)c1cccc(C(F)F)n1` [Example 10]: 9%.
For `CNC(=O)/C(=N/OC)c1cccc(C)c1CO/N=C(\C)c1cccc(C(F)(F)F)n1` [Example 2], the “Fungal growth at 31 ppm (%) FUSACU” value is given as 7%.
In the case of `CO/N=C(/C(=O)OC)c1cccc(C)c1CO/N=C(\C)c1cc(C(F)(F)F)ccn1` [Example 4, Methyl (2E)-2-methoxyimino-2-[3-methyl-2-[[(E)-1-[4-(trifluoromethyl)-2-pyridyl]ethylideneamino]oxymethyl]phenyl]acetate], the “Fungal growth at 31 ppm (%) FUSACU” value was 10%.
With `CO/N=C(/C(=O)OC)c1cccc(C)c1CO/N=C(\C)c1cc(C(F)(F)F)cc(C)n1` [Example 46], the “Fungal growth at 31 ppm (%) FUSACU” value was found to be 1%.
Still for that read-out and setting: with `CNC(=O)/C(=N/OC)c1cccc(C)c1CO/N=C(\C)c1cccc(C)n1` [Example 81] the figure was 9%; with `CNC(=O)/C(=N/OC)c1cccc(C)c1CO/N=C(\C)c1cc(/C(C)=N/OC)ccn1` [Example 30, (2E)-2-Methoxyimino-2-[2-[[(E)-1-[4-[(E)-N-methoxy-C-methyl-carbonimidoyl]-2-pyridyl]ethylideneamino]oxymethyl]-3-methyl-phenyl]-N-methyl-acetamide], 10%; with `CO/N=C(/C(=O)OC)c1cccc(C)c1CO/N=C(\C)c1cc(C(F)(F)F)cc(Cl)n1` [Example 42], 10%.
`CNC(=O)/C(=N/OC)c1cccc(C)c1CO/N=C(\C)c1cc(-c2ccc(F)cc2)on1` [Example 15]: the “Fungal growth at 31 ppm (%) FUSACU” value is 20%.
As for `CNC(=O)/C(=N/OC)c1cccc(C)c1CO/N=C(\C)c1cc(C(F)(F)F)ccn1` [Example 5, (2E)-2-methoxyimino-N-methyl-2-[3-methyl-2-[[(E)-1-[4-(trifluoromethyl)-2-pyridyl]-ethylideneamino]oxymethyl]phenyl]acetamide], the “Fungal growth at 31 ppm (%) FUSACU” value is 8%.
`CNC(=O)/C(=N/OC)c1cccc(C)c1CO/N=C(\C)c1cc(-c2ccccc2)on1` [Example 23]: the “Fungal growth at 31 ppm (%) FUSACU” value was 5%.
For the compound `CO/N=C(/C(=O)OC)c1cccc(C)c1CO/N=C(\C)c1cc(C(F)F)ccn1` [Example 34], the “Fungal growth at 31 ppm (%) FUSACU” value is on record as 10%.
Same read-out and setting: with `CO/N=C(/C(=O)OC)c1cccc(C)c1CO/N=C(\C)c1ccnc(C(F)(F)F)c1` [Example 47] the figure was 8%.
